Patent publication US20240254196A1 (MEDYTOX, published 2024)

Key:
human TGF-β2 = molecular target: T1, human TGF-β2 (human, UniProt P61812 303-414); assay: ELISA, PET301 coated, human TGF-β2 titrated, biotinylated anti-TGF-β2 antibody and streptavidin-HRP detection
T1 construct: Bought protein; also called human TGF-2; human TGF-32 (misprints)
T1 sequence (looked up): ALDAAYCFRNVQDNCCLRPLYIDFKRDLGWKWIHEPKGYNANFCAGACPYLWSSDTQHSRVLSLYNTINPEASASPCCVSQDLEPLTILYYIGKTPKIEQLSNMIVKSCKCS
Protocol: Analysis of the binding capacity of PET301 and human TGF-β2 was performed by coating PET301 on a 96-well plate for immunosorbent assay (Corning, 3590) at a concentration of 60 ng/well. Blocking was carried out at room temperature for 1 hour in PBST containing 1% (w/v) BSA, and human TGF-2 (Peprotech, 100-35B) at an appropriate concentration was diluted in PBST containing 1% (w/v) BSA to induce a binding reaction for 1 hour at room temperature, and then, anti-TGF-β2 biotinylated antibodies (R&D systems, BAF302) were treated to induce a binding reaction at room temperature for 1 hour. Streptavidin-HRP (R&D systems) was treated to induce a binding reaction at room temperature for 30 minutes, and the subsequent processes were performed in the same manner as described above (B of FIG. 24B, Table 4).

human TGF-β1 = molecular target: T2, human TGF-β1 (human, UniProt P01137 partial chain); assay: ELISA, human TGF-β1 coated, PET301 titrated, anti-human IgG Fc-HRP detection
human TGF-β1, sequence (P01137 279-390 limits assumed): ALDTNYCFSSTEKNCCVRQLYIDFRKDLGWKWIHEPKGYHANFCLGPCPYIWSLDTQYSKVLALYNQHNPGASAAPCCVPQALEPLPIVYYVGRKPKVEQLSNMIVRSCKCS
T2 construct: Bought protein; also called human TGF-1; human TGF-31 (misprints)
Protocol: (§1) Analysis of binding of PET301 to human IL-1β and human TGF-β was performed by using ELISA. Human IL-1β (Sino Biological, 10139-HNAE), or human TGF-1 (R&D systems, 7754-BH), or human TGF-β3 (R&D systems, 8420-B3) were coated on a 96-well immunosorbent assay plate (Corning, 3590) at a concentration of 60 ng/well. Next day, the plate was washed with Phosphate Buffered Saline with Tween-20 (PBST; TEKNOVA, P1192). Blocking was performed by incubating the plate for 1 hour at room temperature using PBST to which 1% (w/v) bovine serum albumin (BSA) was added, and then the plate was washed 3 times. PET301 was diluted in PBST containing 1% (w/v) BSA to an appropriate concentration and treated in each well, binding was induced at room temperature for 1 hour, and the plate was washed three times. Peroxidase-bound anti-human IgG Fc goat antibodies (Invitrogen 31413) were diluted (1:10,000) in PBST containing 1% (w/v) BSA to induce binding, and washed 3 times with PBST, and then TMB substrate solution (Thermo Fisher Scientific, 34028) was reacted, and absorbance was measured at 450 nm. Based on the measured absorbance, EC₅₀ values were calculated by using the Prism 7 software (GraphPad Software) (A of FIG. 24A, B of FIG. 24A, A of FIG. 24B, and Table 4).

human TGF-β3 = molecular target: T3, human TGF-β3 (human, UniProt P10600 301-412); assay: ELISA, human TGF-β3 coated, PET301 titrated, anti-human IgG Fc-HRP detection
T3 construct: Bought protein; also called human TGF-3; human TGF-83 (misprints)
T3 sequence (looked up): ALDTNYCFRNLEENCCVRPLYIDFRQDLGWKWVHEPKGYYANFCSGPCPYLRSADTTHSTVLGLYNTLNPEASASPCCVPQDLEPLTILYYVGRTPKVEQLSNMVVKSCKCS
Protocol: as §1

human IL-1β = molecular target: T4, human IL-1β (human, UniProt P01584 117-269); assay: ELISA, human IL-1β coated, PET301 titrated, anti-human IgG Fc-HRP detection
T4 construct: Bought protein; also called hIL-1β
Protocol: as §1

B1: PET301, IL-1 and TGF-β bi-specific κλ heterodimeric polypeptide (Fc fusion)
chain 1: LEADKCKEREEKIILVSSANEIDVRPCPLNPNEHKGTITWYKDDSKTPVSTEQASRIHQHKEKLWFVPAKVEDSGHYYCVVRNSSYCLRIKISAKFVENEPNLCYNAQAIFKQKLPVAGDGGLVCPYMEFFKNENNELPKLQWYKDCKPLLLDNIHFSGVKDRLIVMNVAEKHRGNYTCHASYTYLGKQYPITRVIEFITLEENKPTRPVIVSPANETMEVDLGSQIQLICNVTGQLSDIAYWKWNGSVIDEDDPVLGEDYYSVENPANKRRSTLITVLNISEIESRFYKHPFTCFAKNTHGIDAAYIQLIYPVTNSGTVAAPRTVAAPSVFIFPPSDEQLKSGTASVVCLLNNFYPREAKVQWKVDNALQSGNSQESVTEQDSKDSTYSLSSTLTLSKADYEKHKVYACEVTHQGLSSPVTKSFNRGES[sequence of human IgG1 Fc with changes not given]GGGGSGGGGSGGGGSGGGGSGIPPHVQKSVNNDMIVTDNNGAVKFPQLCKFCDVRFSTCDNQKSCMSNCSITSICEKPQEVCVAVWRKNDENITLETVCHDPKLPYHDFILEDAASPKCIMKEKKKPGETFFMCSCSSDECNDNIIFSEEYNTSNPD
chain 2: SERCDDWGLDTMRQIQVFEDEPARIKCPLFEHFLKFNYSTAHSAGLTLIWYWTRQDRDLEEPINFRLPENRISKEKDVLWFRPTLLNDTGNYTCMLRNTTYCSKVAFPLEVVQKDSCFNSPMKLPVHKLYIEYGIQRITCPNVDGYFPSSVKPTITWYMGCYKIQNFNNVIPEGMNLSFLIALISNNGNYTCVVTYPENGRTFHLTRTLTVKVVGSPKNAVPPVIHSPNDHVVYEKEPGEELLIPCTVYFSFLMDSRNEVWWTIDGKKPDDITIDVTINESISHSRTEDETRTQILSIKKVTSEDLKRSYVCHARSAKGEVAKAAKVKQKVPAPRYTVEQPKAAPGQPKAAPSVTLFPPSSEELQANKATLVCLISDFYPGAVTVAWKADSSPVKAGVETTTPSKQSNNKYAASSYLSLTPEQWKSHRSYSCQVTHEGSTVEKTVAPTESDKTHTCPPCPAPELLGGPSVFLFPPKPKDTLMISRTPEVTCVVVDVSHEDPEVKFNWYVDGVEVHNAKTKPREEQYNSTYRVVSVLTVLHQDWLNGKEYKCKVSNKALPAPIEKTISKAKGQPREPQVCTLPPSREEMTKNQVSLSCAVKGFYPSDIAVEWESNGQPENNYKTTPPVLDSDGSFFLVSKLTVDKSRWQQGNVFSCSVMHEALHNHYTQKSLSLSPGAGGGGSGGGGSGGGGSGGGGSGIPPHVQKSVNNDMIVTDNNGAVKFPQLCKFCDVRFSTCDNQKSCMSNCSITSICEKPQEVCVAVWRKNDENITLETVCHDPKLPYHDFILEDAASPKCIMKEKKKPGETFFMCSCSSDECNDNIIFSEEYNTSNPD
notes: TGFβRII part is residues 24 to 184 of human TGFβRII (GenBank ACZ58377.1); also called IL-1/TGF-β bi-specific heterodimer
An EC50 (human TGF-β2) of 3.08 nM, an EC50 (human TGF-β1) of 0.799 nM and an EC50 (human TGF-β3) of 0.357 nM were found for B1 in this work. It also gave an EC50 (human IL-1β) of 0.226 nM.
